This is one part of the list. At the low end of the ranking, values are background and their order means little. The protein was read in a cell extract, so binding may be indirect.

The test addresses T1, HNF4alpha8 (COS-7 nuclear extract) (UniProt P41235-5).
T1 sequence: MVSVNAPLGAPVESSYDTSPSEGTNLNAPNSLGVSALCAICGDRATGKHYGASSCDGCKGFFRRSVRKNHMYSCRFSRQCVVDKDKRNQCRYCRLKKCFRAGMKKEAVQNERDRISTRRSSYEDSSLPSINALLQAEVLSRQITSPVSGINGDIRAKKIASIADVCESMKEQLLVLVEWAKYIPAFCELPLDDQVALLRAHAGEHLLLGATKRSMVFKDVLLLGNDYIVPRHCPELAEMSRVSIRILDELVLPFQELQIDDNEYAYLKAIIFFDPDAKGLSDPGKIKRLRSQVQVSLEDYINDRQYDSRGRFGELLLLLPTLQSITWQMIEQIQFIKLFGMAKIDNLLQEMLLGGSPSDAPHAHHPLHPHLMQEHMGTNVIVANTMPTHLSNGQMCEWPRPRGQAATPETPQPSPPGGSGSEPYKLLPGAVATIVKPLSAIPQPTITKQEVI
In words: protein-binding microarray. The settings on record: COS-7 nuclear extract on double-stranded Agilent 4x180k PBM; binding buffer, salt, pH and temperature not given; high values mean tight binding; double strand, one strand shown; sequences stand for … in …GCCTAGGGAGATTAGAGTATCGGTCGA
Regarding TGACAACTGAATGTGACCTTTTGGACCACA, the binding signal (log2 normalized intensity) worked out at 7.4.
For TATCTGTCCATCCCTCACTCCTGTCTTACC the value was 0.0552; for CACTGGCTCTGGGGTCAAAGTCCCCTGAGC, 7.66.
For CTGCAACCTGAGTGCCAGAGCTGTGAAGAC the value was -1.4; for CTTTGCTCTCCCTCCTCTCTGAGCAGTCAA, -1.24; for AAGATGTACCATTCATGGACAGCCTTGCCA, -1.22.
In the case of GGAGCACCACGGTTTATTTTTATCTGTTTA, the binding signal (log2 normalized intensity) was 0.3.
For TTCATGTGTGGTGCAGATTCCACACTGGCT the value was -1.05; for GACTTTGATCTTGCTGCTCTCGCCTGGAAG, -1.45; for ATTTTCAGCCACCTTTATCTGATCAGAAAT, 0.595.
As for TGACTGGAGCAGAGCGATCAAAGGTCACAG, the binding signal (log2 normalized intensity) is 7.44.
On to CCAGGTAACTTTTGTCTCTGGAGGGATCAG, for which the binding signal (log2 normalized intensity) was found to be 0.587.
Take GTTAGTGCTGCCTCTTCTGGGAAGAGTAGA: the binding signal (log2 normalized intensity) is -1.29.
To TATCATCCACATATTTTCCCTATCTAGCCA belongs -1.22; to CTTCTCTGGGAGAAAGGGAGGCAGGTGAGC, -1.34; to CAAGAATGCAAAGCCCTGGCTGACCTTTAG, 5.88.
For ATCAGAGAGTTCAAACTCTGAAGTTGTAAA the value was 0.953; for ACGCCCGGCCAAAGACCACATTCTTTTAGT, -1.15; for TGGTTCCATTGTCCTACAGGACATTAATCA, 0.85.
For AGTTCCTGTGCAAGCCCCTGACCAAGGGTC the value was 4.15; for CCCCTTTGAACTCTGAATAACTGCTTTGTG, 1.7.
As for CAGGCTGCGTTTCAAAGCCAGGACTTTCAG, the binding signal (log2 normalized intensity) was -1.32.
Consider TACAGAATTTCTCAGATGCCAGCTAAGATC, for which the binding signal (log2 normalized intensity) is -1.31.
To TGCATAGCAGAAACATAGAAAGGAGTACAC belongs -1.35.
For AAAAACCACAAAAGCCAACAGTACAGCCTT the value was -1.36.
Regarding TTCCAGTTACTGGAGGCTGGAGCTCCTGGG, the binding signal (log2 normalized intensity) is -1.31.
For AGGCCCTGCATTAAACAAGAGAGAGTCCAC the value was 2.35; for AGAGATCATGGCCGATCGACTAGCGAGGCG, -1.27; for ACTTTCAGAGTAACCATGGGGGCTCAGGGC, -1.24.
To GGCCATTTGGTCTGTAGTGTTGCTCAAGTC belongs 1.31; to TGCTTTTCTAGAACCAGGAATCCTAGGGAA, -1.31; to TCTAGAAACCAGTGAGAAAATGGTGACCCT, 4.13.
For CTAGGAAACTGACCTTTGCTCATGACTATT the value was 6.61.
GCTGATGCAGAGGGTGCAAAGTTTTTAAAG: the binding signal (log2 normalized intensity) amounted to 1.28.
To TGATTACCCTTATCTTATCTCCTGCTAAAT belongs -0.759; to TTTACTTCCTTTTGTTCCTGCTCTAACACT, 0.466; to TGCCATGATAAGCAGTGTGGACTTTTTCCT, 3.69.
For ACTGCATGATAGGCCCATCTTCTTATCTGA the value was 0.173; for GGTCAAGTTCAGATCCTGGCCATGCCCCAG, 0.069; for CCCTCAGAGCTCAGATGAACTTTGCCTTAG, 6.28.
For CAAAATCAATAAATCACACGAAACAAGTAG the value was -1.27.
With GGAAAACCCGGCGCGGACATAAAATTAAAG, the binding signal (log2 normalized intensity) is -1.33.
For CCATGTGCTATTCTGTCTCCTGGAAAGGTT the value was 1.87; for GAAGACAAGACAAGGAAGTTAAGAGTTCGA, -1.37.
Consider TTGCCATTTACATCAAACACTCACTGGGAG, for which the binding signal (log2 normalized intensity) is -1.34.
To TGATTGCTGTCTACTCTGGGGGTCAGCAAT belongs 3.23; to AGCAGAAAATCCAGGTGCAGTGTGAGAGGA, -1.24; to GTGACTCACCTTTGCTCTGATCTTTGACTT, 4.15.
On to TCTCTCTTAAGAACGCTTGTGATTACACTG, for which the binding signal (log2 normalized intensity) is -1.13.
With CCCCACCCCACCCCACTCCACCTACGCTAC, the binding signal (log2 normalized intensity) was 5.33.
In the case of CAATCCAGAAGGCGCTGAACTTTGCCTTGT, the binding signal (log2 normalized intensity) was 5.04.
Take AACCTGTTCCAAAGTCCACCGTGGTGTAGA: the binding signal (log2 normalized intensity) is 5.07.
To CATCCCCTAAAACATCAAATACCTCCAAGA belongs 0.697; to TTCCTGGCCTCTCTGCAAATTTGCCTTGTC, 0.448.
For ACTATTTTCCTAAATATGTTCCAAAGTTCA, the binding signal (log2 normalized intensity) stood at 4.37.
To GTTAGACAGTGCCTATGTTGGAATGCCTAA belongs -1.24; to TTACTGTGTAAACTTTGCAGCAGATAATTA, -1.19; to GTCCAGAGTCCACGTACTTAACTACTACAC, 1.48.
To TATTTCACAGGGATAAGCATGGAGATGAGT belongs -0.169; to CACACCCCACGTACATTGCACCCTCCAGGA, 2.53.
To ATCTCACTAACAGTGTTCCTCGTGTGTTCT belongs 2.17.
For TCCAAAATCTGCATCCCCAAGCTGTTATTC, the binding signal (log2 normalized intensity) is 2.05.
For ATTCCACACTGCAGGCTCTGTCCCCGCCCA the value was 3.09; for CTGGTAGCAGGGGTGGTTCATTTGCACTTG, 1.78.
For ATCGCTTCCAGGGTTACCGGCAGAGAGAAG the value was -1.25.
To ATACCACTGATAAGGTTCCAGCAAAGAGAT belongs -0.56; to TACTTAGTGTTTTATGTGTATTTACTTATT, 1.74; to CAAACCAAAAAGTTGGTTGGAGCTATGGGC, -1.18.
For the sequence TGGACCTGCTCTGTTTTCTTTCGGTCACCC, the binding signal (log2 normalized intensity) amounted to 2.16.
For CTTAGGGAACAAAGGTCAGTCCCGCAGTGA the value was 5.44.
For TGATCCTGGTAGCAGGGGTGGTTCATTTGC the value was 1.36; for CTCCCCCTTTCTCCGCTAAGTGGCTCGACA, 2.41.
Regarding GTCCAAGTCACTATCACCTCTCCCACCTGA, the binding signal (log2 normalized intensity) was 2.26.

For the origin of these results see paper PMC10726135.
